# Measured values reported in PubChem BioAssay AID1345082 (National Center for Advancing Translational Sciences (NCATS), 2018).
# “And” between values parts separate entries of the source, which are not always exact repeats. Equal values may be shown once. Hit rate of the full screen: of about 94,000 compounds, about 4,000 (4.3%) were called active. The inconclusive results got no clear call from the source; some entries with a clear call stand among them for comparison. The call rests on the fitted dose curve; in most records, active means well fitted inhibition curve with a large enough effect; inconclusive means small, poorly fitted or top-dose-only effect; inactive means no such curve, though single readings can be large or run the other way. Potencies of inconclusive entries are doubtful fits and often do not repeat.
# Assay: Cytotoxic Profiling in NIH 3T3 Cell Line of Diverse Libraries Using Quantitative High-Throughput Screening; further: nearly all actives have a fitted effect of over 55% in size
# Conditions: NIH 3T3 viability, CellTiter-Glo ATP luminescence, 48-72 h; series mostly up to 96.7 µM
# How it was run: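 ATP-dependent luminescence (CellTiter-Glo) served as the viability signal for NIH 3T3 cells treated with compound for 48 or 72 hr at 37 °C.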
# Potency means the concentration at half of the fitted maximal effect; tags describe the fitted curve by direction and shape.
row,SMILES,Potency
1,CCC1(N2CCN(S(=O)(=O)c3cc(F)ccc3C)CC2)CCN(S(C)(=O)=O)C1 (centres undefined),"inconclusive: 44.7 µM [inhibitor, partial curve, poor fit]"
2,O=C(c1ccc2oc(-c3ccncc3)nc2c1)N1CCOCC1,"inconclusive: 44.7 µM [inhibitor, partial curve, poor fit]"
3,CCc1noc(-c2ccn3c(CNC(=O)CCC4CCCC4)nnc3c2)n1,inactive
4,COc1cccc(-c2nccc3c(=O)cc(N4CCOCC4)oc23)c1,active: 20 µM
5,O=C(c1cccc(F)c1)N1CCC[C@H]1c1nc(-c2ccccc2)no1,inactive
6,Cc1ccccc1CNC(=O)C1(c2ccc(NS(C)(=O)=O)cc2)CCCCC1,active: 28.2 µM
7,Cc1ccc(-n2nc(C)c([C@H]3C=C[C@@H](OC(=O)N[C@H](C)c4ccccc4)C3)c2C)cc1Cl,"inconclusive: 44.7 µM [inhibitor, partial curve]"
8,NCc1ccc(-c2cccc(C(F)(F)F)c2)cc1,active: 31.6 µM
9,O=C(c1nnc(CN2CCN(CCO)CC2)n1-c1ccccc1)N1CCC[C@@H]1C(c1ccccc1)c1ccccc1,"inconclusive: 70.8 µM [inhibitor, single point]"
10,Cn1ncc(N2CCCC(CC(=O)NCCC3=CCCCC3)C2)cc1=O (centres undefined),inactive
11,CN1CCC2(Cc3ccccc3CN(C(=O)C3CCCC3)C2)C1 (centres undefined),inactive
12,O=C(c1ccncc1)N1CCN(Cc2ccccc2-c2ccccc2F)CC1,"inconclusive: 44.7 µM [inhibitor, partial curve, poor fit]"
13,CC(=O)N1CCN(c2nc3c(s2)CC(C(=O)NCC2CCCCC2)CC3)CC1 (centres undefined),"inconclusive: 44.7 µM [inhibitor, partial curve, poor fit]"
14,CN(C)c1cccc(-c2ncc3c(n2)OCCN(Cc2ccc(F)cc2F)C3=O)c1,inactive
15,COc1ccc(CN2CCC3(Cc4ccccc4CNC3=O)C2)c(O)c1 (centres undefined),inactive
16,COCCCNC(=O)c1ccc(Cn2ccn3nc4c(c3c2=O)CCCC4)cc1,"inconclusive: 39.8 µM [inhibitor, partial curve, poor fit]"
17,COc1ccc(C(=O)N2CCC(c3n[nH]c(=O)n3Cc3ccc(F)cc3)CC2)cc1,"inconclusive: 39.8 µM [inhibitor, partial curve, poor fit]"
18,COc1cccc(CN2Cc3nc(-c4cn[nH]c4)ccc3OCC2=O)c1,active: 35.5 µM
19,COc1ccccc1-c1ccc(C(=O)N2CCC(NC(=O)c3ccc(Cl)nc3)CC2)cc1,"inconclusive: 50.1 µM [inhibitor, partial curve, poor fit] and inconclusive: 44.7 µM [inhibitor, partial curve, poor fit]"
20,CNC(=O)N1CCC2(CC1)CC(Cc1ccc(C)cc1)CCO2 (centres undefined),inactive
21,COc1ccc(C(=O)NC[C@H]2Cn3c(-c4ccc(F)cc4)cnc3CO2)cc1,"inconclusive: 39.8 µM [inhibitor, partial curve]"
22,O=C1NCc2ccccc2CC12CCCCN2Cc1ccc(F)cc1 (centres undefined),inactive

row,SMILES,Potency
1,Cc1cc(C(F)(F)F)nn1CC(=O)NCC1Cn2cccc2C(=O)N1Cc1ccccc1 (centres undefined),inactive
2,COc1cccc(Nc2ncc3c(n2)C(C)(C(=O)NCCN2CCOCC2)CC3)c1 (centres undefined),"inconclusive: 112 µM [inhibitor, single point]"
3,Cn1ncc2c(C(=O)Nc3cccc(Cl)c3)cc(-c3ccccc3F)nc21,inactive
4,O=C(NCc1cccs1)C1CCN(c2nc3ncccc3o2)CC1,inactive
5,COc1ccc(OCC(=O)N2CCC[C@H]2c2nc(-c3ccc(OC)cc3)no2)cc1,"inconclusive: 50.1 µM [inhibitor, partial curve, poor fit]"
6,Cc1ccccc1C(=O)N1CCCC(c2nn(-c3ccccn3)c(=O)[nH]2)C1 (centres undefined),inactive
7,Cc1ccsc1C(=O)C1CCCN(Cc2ccc(C#CC(C)(C)O)cc2)C1 (centres undefined),"inconclusive: 44.7 µM [inhibitor, partial curve, poor fit]"
8,CNC(=O)c1cc(C2CC2)nc2c1c(C1CCN(C(=O)Nc3ccccc3)C1)nn2C (centres undefined),inactive
9,O=C(CCc1cccnc1)N1CC(COc2ccccc2)C2(C1)CN(c1ccccc1)C2 (centres undefined),"inconclusive: 112 µM [inhibitor, single point]"
10,COc1ccc(-c2cc(N3CCCC(NC(=O)c4cccc(C(F)(F)F)c4)C3)n[nH]2)cc1 (centres undefined),"inconclusive: 50.1 µM [inhibitor, partial curve, poor fit]"
11,COCC(=O)N1CCC(Oc2ccc(C(=O)NCCN3CCNC3=O)cc2)CC1,inactive
12,COc1ccc(C(=O)N2CC(n3cc(COCC4CC4)nn3)C2)c(OC)n1,inactive
13,CC1=NOC2(CCN(C(=O)c3ccc(F)cc3)CC2)C1,"inconclusive: 100 µM [inhibitor, single point]"
14,CC(C)c1ccc(CC(=O)N2CCCc3ncc(C(=O)NCCOc4ccccc4)cc32)cc1,"inconclusive: 44.7 µM [inhibitor, partial curve, poor fit]"
15,Cc1cccc(CNC(=O)C2(c3ccc(NS(C)(=O)=O)cc3)CCCCC2)c1,"inconclusive: 35.5 µM [inhibitor, partial curve]"
16,Cc1ccc(CNC(=O)C2CCCN(c3cnn(C)c(=O)c3)C2)cc1 (centres undefined),inactive
17,COc1ccc(S(=O)(=O)N2CC[C@H](NC(=O)Cc3cccs3)C[C@H]2C(=O)N[C@@H](CC2CCCCC2)C(N)=O)cc1,"inconclusive: 79.4 µM [inhibitor, partial curve, poor fit]"
18,COc1ccc2c3c1CN(Cc1ccccc1)CC3=CC(C)(C)CO2,"inconclusive: 50.1 µM [inhibitor, partial curve, poor fit]"
19,O=C(Nc1ccccc1)C1=NO[C@@H]2CN(Cc3cc(F)ccc3F)C[C@H]12,"inconclusive: 79.4 µM [inhibitor, partial curve, poor fit]"
20,CCCS(=O)(=O)N1CCC(Oc2nccnc2N2CCOCC2)C1 (centres undefined),inactive
21,COCCN1CCNc2nc(CNc3ccon3)n(Cc3ccccc3)c2C1=O,"inconclusive: 100 µM [inhibitor, single point]"
22,Cn1c(CNC(=O)CN2CC3CC(C2)[C@H]2CCCC(=O)N2C3)nc2ccccc21 (some centres undefined),"inconclusive: 70.8 µM [inhibitor, single point]"

row,SMILES,Potency
1,CC(=O)N1CCC(C(=O)NCC2CCN(c3cc(-c4ccc(C)cc4)[nH]n3)CC2)CC1,inactive
2,COc1cccc(CCNC(=O)C2(c3ccc(Cl)cc3)CCOCC2)c1,"inconclusive: 50.1 µM [inhibitor, partial curve, poor fit]"
3,COc1cc(Cl)c(C)cc1NC(=O)Cn1cccc1-c1nc(-c2ccccc2)no1,"inconclusive: 50.1 µM [inhibitor, partial curve, poor fit]"
4,CN(Cc1n[nH]c2c1CCCCC2)C(=O)c1cn(CC2CCCCC2)nn1,"inconclusive: 28.2 µM [inhibitor, partial curve, poor fit]"
5,O=C1NC2(CCCN(Cc3ccc(F)cc3)C2)COc2ccccc21 (centres undefined),"inconclusive: 50.1 µM [inhibitor, partial curve, poor fit]"
6,O=C(Nc1ccccc1F)c1ccc2c(c1)n(Cc1ccccc1)c(=O)c1ccnn12,"inconclusive: 50.1 µM [inhibitor, partial curve, poor fit]"
7,Cc1oc(-c2cccc(Oc3ccccc3)c2)nc1CN(C)Cc1cnc(N)nc1,"inconclusive: 10 µM [inhibitor, full curve, poor fit]"
8,C[C@H]1CN(C(=O)Nc2ccc(F)cc2)C[C@@H]1c1nc(-c2ccccc2)no1,"inconclusive: 50.1 µM [inhibitor, partial curve, poor fit]"
9,CSc1ncc(CN2CCOC(Cc3cccc(C(F)(F)F)c3)C2)cn1 (centres undefined),active: 28.2 µM
10,COc1ccc(Cl)cc1C(=O)NC1CCCN(c2cc(-c3ccc(F)cc3)[nH]n2)C1 (centres undefined),"inconclusive: 35.5 µM [inhibitor, partial curve, poor fit]"
11,COc1cc2c(cc1CN1CCCC(CO)(CC=C(C)C)C1)OCCO2 (centres undefined),"inconclusive: 50.1 µM [inhibitor, partial curve, poor fit]"
12,CNC(=O)c1cc(C2CC2)nc2c1c(C1CCN(C(=O)C3CCCC3)CC1)nn2C,inactive
13,CC(=O)N1CCCN(c2nccc(Nc3ccc(C)cc3)n2)C1,"inconclusive: 56.2 µM [inhibitor, partial curve, poor fit]"
14,COc1cccc(N2C(=O)NC(=NC3CCCCC3)C23CCCN(Cc2cccnc2)C3)c1 (centres undefined),"inconclusive: 2.82 µM [inhibitor, full curve, poor fit]"
15,O=C(c1ccccc1F)N1CCc2nc(-c3ccc(Cl)cc3)nc(-c3ccccc3)c2C1,"inconclusive: 50.1 µM [inhibitor, partial curve, poor fit]"
16,Cc1nn(-c2ccccc2)c2c1C(C)N(CC1CN([S+](C)(=O)[O-])C1)C2=O (centres undefined),inactive
17,O=C(Cc1c[nH]c2ncc(-c3ccccc3Oc3ccccc3)cc12)NCc1cccnc1,"inconclusive: 35.5 µM [inhibitor, partial curve, poor fit]"
18,Cc1ccc([S+](=O)([O-])N2CCCC(C(=O)N3CCC(c4nc5ccncc5[nH]4)CC3)C2)cc1 (centres undefined),"inconclusive: 11.2 µM [inhibitor, full curve, poor fit]"
19,Cc1cccc(CC(=O)N2CCC(Cc3nc(-c4ccccc4)no3)CC2)c1,"inconclusive: 50.1 µM [inhibitor, partial curve, poor fit]"
20,O=C(c1cn(-c2ccccc2)nn1)N(Cc1cccnc1)C1CCNCC1,inactive
